The list shows a part of the results.
test system: S. aureus RN4220; assay: growth inhibition call (relative growth <= 0.2); details: 50 µM

Growth inhibition call, inactive:
C[C@H]1CN([C@@H](C)CO)C(=O)Cc2cc(NC(=O)Nc3cccc4ccccc34)ccc2O[C@H]1CN(C)S(=O)(=O)c1ccc(Cl)cc1, Cc1noc(C)c1NC(=O)Nc1cccc2c1O[C@H](CN(C)C(=O)Nc1ccc(C(F)(F)F)cc1)[C@@H](C)CN([C@H](C)CO)C2=O, CO[C@H]1CN(C)C(=O)c2cc(NC(=O)Nc3cccc(Cl)c3)ccc2OC[C@H](C)N(C(=O)Nc2c(C)noc2C)C[C@@H]1C, C[C@@H]1CN([C@@H](C)CO)C(=O)c2cc(NC(=O)Nc3ccc4c(c3)OCO4)ccc2O[C@@H]1CN(C)Cc1ccc(Oc2ccccc2)cc1

Source: the antibiotic and cytotoxicity screens of Wong et al. (2023)
